Source: US6096871A, “Polypeptides altered to contain an epitope from the Fc region of an IgG molecule for increased half-life” (Genentech, Inc., priority 1995, dated 2000)

Assay: Single-dose pharmacokinetic study of anti-CD11/18 constructs in mice after intravenous administration (MAC-1 capture ELISA, two-compartment model)
Set-up: species or system mouse (male Crl:CD-1 (ICR)BR VAF/Plus)
Conditions: mouse, in vivo
Method: Pharmacokinetic Study of Anti-CD11/18 Constructs in Mice after Intravenous Administration
The objective of this single-dose pharmacokinetic study of five humanized huH52 anti-CD18 antibody fragments (constructs) in mice was to determine if non-specific clearance of antibody fragments is affected by alterations to amino acids in the constant domain. Serum samples were collected from male CD1 mice over a 24-hour period and human anti-CD18 serum concentrations were measured by ELISA.
The anti-CD18 antibody fragments investigated were derived from E.-coli-produced recombinant humanized monoclonal Fab antibody fragments as described above. The Fab fragment and the construct in which two Fab' subunits were joined together by two disulfide bonds were investigated. Lastly, three new versions of the original Fab were constructed by altering amino acids in the constant domain. See the Study Design table below for further description of the constructs.
The construct antigen-binding sites are directed against the CD18 subunit of the CD11 /CD18 glycoprotein complex on the surface of leukocytes. These antibody fragments are chimpanzee and human-specific; therefore, the serum pharmacokinetic information obtained in mice provides a description of the non-specific clearance of the fragments.
Because linear pharmacokinetics were expected in this study, a single-dose level of 2 mg/kg was chosen rather than multiple-dose levels.
The pharmacokinetics of the five antibody constructs were studied in male Crl:CD-1® (ICR)BR VAF/Plus® mice (approximately 20-30 g). Five groups, each consisting of twenty mice, received an intravenous bolus dose of 2 mg/kg via the tail vein. Blood samples were collected at 5 and 30 minutes, 1, 2, 4, 8, 12, 16, 20, and 24 hours post-dose. Serum was harvested and concentrations of the antibody fragments were determined in a MAC-1 capture ELISA as follows:
96-Well microtiter plates were coated overnight with murine anti-CD18 monoclonal antibody. After overnight incubation at 4° C., plates were washed three times with ELISA wash buffer and blocked for 1 hour with ELISA diluent. ELISA wash buffer is phosphate-buffered saline (PBS)/0.05% Polysorbate™ 20. […] The expiration period is 2 weeks from the date of preparation.
The ELISA diluent was PBS/0.5% BSA/0.05% Polysorbate™ 20/0.01% Thimerosal™/1 mM CaCl2 /1 mM MgCl2.
After blocking, the plates were washed again three times with ELISA wash buffer. […] After a 2-hour incubation period, the plates were washed six times with ELISA wash buffer and 100 μL of the mouse serum sample being tested or the standard containing the homologous recombinant human anti-CD18 Fab were added. The mouse serum samples were first diluted 1/10 in ELISA diluent and then a further 1/4 into sample diluent; 100 μL was taken from this initial 1/40 dilution. Sample diluent is 10% Swiss Webster Mouse serum in ELISA diluent.
Following a second 2-hour incubation, the plates were again washed six times with ELISA wash buffer and 100 μL of horseradish-peroxidase-conjugated F(ab')2 directed against a human Fab was added. After a 1-hour incubation at ambient temperature, the plates were washed with ELISA wash buffer as described above and 100 μL of phosphate-buffered saline, pH 7.2, containing 2.2 mmol/L orthophenylene diamine (OPD) and 0.012% (v/v) hydrogen peroxide (H2 O2) was added to each well. When color had fully developed, the reaction was stopped with 100 μL per well of 4.5 mol/L sulfuric acid. The absorbance of the well contents was measured at 492 nm minus 405 nm background absorbance using an automatic plate reader from SLT Labinstruments. Data were reduced by using a four-parameter, curve-fitting program based on an algorithm for least-squares estimation of non-linear parameters.
Serum concentration versus time data were analyzed utilizing a non-linear curve-fitting program and subsequent pharmacokinetics parameters were estimated.

B1: Fab v1B: Fab v1b incorporated oligos V1A and V1B (SEQ ID NO: 10) (antibody)
heavy: ASTKGPSVFPLAPSPKNSSMISNTPALGCLVKDYFPEPVTVSWNSGALTSGVHTFPAVLQSSGLYSLSSVVTVPHQSLGTQTYICNVNHKPSNTKVDKRV
- AUC/dose/W (dose-normalized area under the serum concentration versus time curve): 23 µg·h/mL
- CL/W (weight-normalized serum clearance): 0.08 L/h/kg
- Tmax (time of maximum observed concentration): 5.0 min
- V1/W (volume of the central compartment): 0.0423 L/kg
- t1/2 α (initial half-life): 4.8 min
- t1/2 β (terminal half-life): 55.2 min
- clearance (iv, 2 mg/kg): 0.08 L/h/kg
- clearance relative to double-disulfide (Fab')2 (iv, 2 mg/kg): about three-fold higher
- cleared from the serum more slowly than the original Fab (iv, 2 mg/kg): 2 fold
